Data: PMC6005816
Where a chain is given by its changes, count along the chain named. These are yes or no findings as the source states them, for the method shown. In cells and extracts the contact can be indirect. Some results given as binding are weak or reduced against the parent protein; the word gives no strength. Where a sequence is shown, tags or fusion partners need not be part of it.

What was measured:
[1] = target: T1, VPS33A-FLAG-BirA* (human) (UniProt Q96AX1); test: co-IP; anti-FLAG M2 magnetic resin on lysates of stable HEK293 Flp-In T-REx cells expressing FLAG-BirA*-tagged bait (tetracycline-induced); 10 mM Tris-HCl pH 7.5, 150 mM NaCl, 0.5 mM EDTA, 0.5% NP-40; 1 h at 4 °C; eluted with FLAG peptide; blotted for endogenous protein
T1 sequence: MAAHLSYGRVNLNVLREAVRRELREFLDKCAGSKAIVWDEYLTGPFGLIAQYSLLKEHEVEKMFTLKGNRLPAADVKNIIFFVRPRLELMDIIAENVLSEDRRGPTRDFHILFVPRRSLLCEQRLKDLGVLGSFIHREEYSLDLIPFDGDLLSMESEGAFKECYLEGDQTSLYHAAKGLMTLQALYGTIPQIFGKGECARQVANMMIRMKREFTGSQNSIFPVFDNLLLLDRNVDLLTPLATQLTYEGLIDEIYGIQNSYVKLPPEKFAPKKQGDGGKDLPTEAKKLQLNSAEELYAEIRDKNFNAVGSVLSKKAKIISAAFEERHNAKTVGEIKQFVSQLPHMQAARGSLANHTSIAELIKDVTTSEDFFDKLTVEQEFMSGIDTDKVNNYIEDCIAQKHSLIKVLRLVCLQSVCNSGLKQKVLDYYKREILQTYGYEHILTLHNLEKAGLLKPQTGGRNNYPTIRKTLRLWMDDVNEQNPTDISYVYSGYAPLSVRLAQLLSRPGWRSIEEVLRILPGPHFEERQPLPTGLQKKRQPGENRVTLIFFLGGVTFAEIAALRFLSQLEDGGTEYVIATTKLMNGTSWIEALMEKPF

[2] = target: T2, VPS33A Y438D I441K-FLAG-BirA* (human) (UniProt Q96AX1); test: as above
T2 sequence: T1 sequence with Y438D, I441K

- binding [1]: binds
- binding [2]: no binding
B1: endogenous VPS16 (protein, UniProt Q9H269 1-839)
chain: MDCYTANWNPLGDSAFYRKYELYSMDWDLKEELRDCLVAAAPYGGPIALLRNPWRKEKAASVRPVLDIYSASGMPLASLLWKSGPVVSLGWSAEEELLCVQEDGAVLVYGLHGDFRRHFSMGNEVLQNRVLDARIFHTEFGSGVAILTGAHRFTLSANVGDLKLRRMPEVPGLQSAPSCWTVLCQDRVAHILLAVGPDLYLLDHAACSAVTPPGLAPGVSSFLQMAVSFTYRHLALFTDTGYIWMGTASLKEKLCEFNCNIRAPPKQMVWCSRPRSKERAVVVAWERRLMVVGDAPESIQFVLDEDSYLVPELDGVRIFSRSTHEFLHEVPAASEEIFKIASMAPGALLLEAQKEYEKESQKADEYLREIQELGQLTQAVQQCIEAAGHEHQPDMQKSLLRAASFGKCFLDRFPPDSFVHMCQDLRVLNAVRDYHIGIPLTYSQYKQLTIQVLLDRLVLRRLYPLAIQICEYLRLPEVQGVSRILAHWACYKVQQKDVSDEDVARAINQKLGDTPGVSYSDIAARAYGCGRTELAIKLLEYEPRSGEQVPLLLKMKRSKLALSKAIESGDTDLVFTVLLHLKNELNRGDFFMTLRNQPMALSLYRQFCKHQELETLKDLYNQDDNHQELGSFHIRASYAAEERIEGRVAALQTAADAFYKAKNEFAAKATEDQMRLLRLQRRLEDELGGQFLDLSLHDTVTTLILGGHNKRAEQLARDFRIPDKRLWWLKLTALADLEDWEELEKFSKSKKSPIGYLPFVEICMKQHNKYEAKKYASRVGPEQKVKALLLVGDVAQAADVAIEHRNEAELSLVLSHCTGATDGATADKIQRARAQAQKK
